The shares of active, inactive and inconclusive entries below differ from those in the screen. For part of these data: Where the call is inconclusive, the potency comes from a doubtful curve fit. Calls of active or inactive are those of the source. Unless noted, the call rests on the fitted dose curve; in most records, active means well fitted curve in the direction sought with a large enough effect; inconclusive means small, poorly fitted or top-dose-only effect, or another doubt; inactive means no such curve, though single readings can be large; an effect the other way counts as inactive or inconclusive.
What was measured:
[1] = NFAT Signaling Pathway (AID 444; active means well fitted curve in either direction with a large enough effect, not every such curve was filed as active; inconclusive means small, poorly fitted or top-dose-only effect, or another doubt;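 further: carbachol stimulus at about its EC50 of 1 µM final; on the % scale 0 is the no-effect control and ±100 the full control effect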); conditions: Jurkat NFAT-bla M1, carbachol, beta-lactamase ratio, 5 h; at 7.69 µM (top of the series) unless noted
Summary of the method: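 Read-out: CCF4 FRET ratio (460 nm/530 nm) after 1 h RT dye loading, used for %activity and AC50 from titration series. Cells: Jurkat NFAT-β-lactamase/M1 line, treated with compound plus 1 uM carbachol for 5 h, 37 °C.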

[2] = target: Cytochrome P450 2C9 (Homo sapiens) (UniProt P11712); experiment: qHTS Assay for Inhibitors and Substrates of Cytochrome P450 2C9 (AID 883); further: potency means the concentration at half of the fitted maximal effect; nearly all actives have a fitted effect of over 60% in size
Summary of the method: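 Luminescent read-out of deoxyluciferin hydroxylation, normalized to 57uM sulphaphenazole (AC100). Reaction: 10nM enzyme, 100uM Luciferin-H (equal to KM), 25mM KPO4, 10 min compound preincubation, then 60 min with NADPH regeneration, both at 37C.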

[3] = target: Bifunctional 3'-5' exonuclease/ATP-dependent helicase WRN (Homo sapiens) (UniProt Q14191); experiment: qHTS for Inhibitors of WRN Helicase: Confirmatory Assay for Cherry-picked Compounds. (AID 720497); conditions: WRN helicase DNA unwinding, fluorescence kinetic; further: potency means the concentration at half of the fitted maximal effect; nearly all actives have a fitted effect of over 65% in size
UniProt Q14191, sequence (Q14191 whole entry, looked up): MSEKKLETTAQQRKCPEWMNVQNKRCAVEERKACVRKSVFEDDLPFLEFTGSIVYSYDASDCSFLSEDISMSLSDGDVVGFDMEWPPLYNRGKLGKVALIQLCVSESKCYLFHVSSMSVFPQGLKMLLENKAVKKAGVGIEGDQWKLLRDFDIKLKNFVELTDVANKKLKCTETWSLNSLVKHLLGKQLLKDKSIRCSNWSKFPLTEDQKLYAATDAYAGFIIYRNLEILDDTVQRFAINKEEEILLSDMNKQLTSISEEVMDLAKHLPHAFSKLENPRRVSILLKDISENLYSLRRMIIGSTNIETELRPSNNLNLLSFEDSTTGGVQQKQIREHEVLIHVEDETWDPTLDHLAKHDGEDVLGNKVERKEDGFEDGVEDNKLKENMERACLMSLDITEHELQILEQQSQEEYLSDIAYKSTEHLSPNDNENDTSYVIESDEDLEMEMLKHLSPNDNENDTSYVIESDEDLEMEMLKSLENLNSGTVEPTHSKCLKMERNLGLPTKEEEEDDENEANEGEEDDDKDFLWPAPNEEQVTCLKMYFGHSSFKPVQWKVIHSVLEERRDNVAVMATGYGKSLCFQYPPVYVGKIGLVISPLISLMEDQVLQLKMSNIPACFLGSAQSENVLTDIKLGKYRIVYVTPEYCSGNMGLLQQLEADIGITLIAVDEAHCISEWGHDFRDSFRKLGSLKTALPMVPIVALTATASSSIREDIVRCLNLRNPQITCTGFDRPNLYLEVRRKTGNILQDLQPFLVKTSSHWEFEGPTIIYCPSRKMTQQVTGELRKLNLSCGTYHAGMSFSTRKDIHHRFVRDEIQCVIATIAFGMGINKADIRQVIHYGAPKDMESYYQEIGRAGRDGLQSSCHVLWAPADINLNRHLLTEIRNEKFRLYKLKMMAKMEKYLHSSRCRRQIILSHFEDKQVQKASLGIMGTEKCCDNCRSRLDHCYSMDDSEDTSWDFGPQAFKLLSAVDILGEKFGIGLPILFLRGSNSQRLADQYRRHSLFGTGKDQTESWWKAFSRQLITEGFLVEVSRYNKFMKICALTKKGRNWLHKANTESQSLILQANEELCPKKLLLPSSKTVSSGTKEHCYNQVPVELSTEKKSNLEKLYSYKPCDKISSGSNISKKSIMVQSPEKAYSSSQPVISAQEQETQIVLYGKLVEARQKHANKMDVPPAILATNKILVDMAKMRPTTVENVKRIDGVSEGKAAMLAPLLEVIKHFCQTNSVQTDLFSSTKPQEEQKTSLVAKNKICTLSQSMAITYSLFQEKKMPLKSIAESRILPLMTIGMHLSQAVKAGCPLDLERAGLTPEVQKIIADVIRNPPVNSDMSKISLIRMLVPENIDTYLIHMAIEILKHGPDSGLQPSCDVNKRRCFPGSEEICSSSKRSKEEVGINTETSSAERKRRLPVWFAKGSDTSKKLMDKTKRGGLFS
Summary of the method: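 Helicase activity is tracked as a kinetic fluorescence signal (excitation 525 nm, emission 598 nm) after 100 nM forked duplex DNA and 2 mM ATP are added to 20 nM WRN that has been preincubated 15 min with compound at room temperature.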

[4] = target: DNA polymerase eta (Homo sapiens) (UniProt Q9Y253); experiment: qHTS for Inhibitors of Polymerase Eta: Confirmatory Assay for Cherry-picked Compounds (AID 720502); conditions: Pol eta primer extension, TAMRA/BHQ fluorescence, 10 min; further: potency means the concentration at half of the fitted maximal effect
UniProt Q9Y253, sequence (Q9Y253 whole entry, looked up): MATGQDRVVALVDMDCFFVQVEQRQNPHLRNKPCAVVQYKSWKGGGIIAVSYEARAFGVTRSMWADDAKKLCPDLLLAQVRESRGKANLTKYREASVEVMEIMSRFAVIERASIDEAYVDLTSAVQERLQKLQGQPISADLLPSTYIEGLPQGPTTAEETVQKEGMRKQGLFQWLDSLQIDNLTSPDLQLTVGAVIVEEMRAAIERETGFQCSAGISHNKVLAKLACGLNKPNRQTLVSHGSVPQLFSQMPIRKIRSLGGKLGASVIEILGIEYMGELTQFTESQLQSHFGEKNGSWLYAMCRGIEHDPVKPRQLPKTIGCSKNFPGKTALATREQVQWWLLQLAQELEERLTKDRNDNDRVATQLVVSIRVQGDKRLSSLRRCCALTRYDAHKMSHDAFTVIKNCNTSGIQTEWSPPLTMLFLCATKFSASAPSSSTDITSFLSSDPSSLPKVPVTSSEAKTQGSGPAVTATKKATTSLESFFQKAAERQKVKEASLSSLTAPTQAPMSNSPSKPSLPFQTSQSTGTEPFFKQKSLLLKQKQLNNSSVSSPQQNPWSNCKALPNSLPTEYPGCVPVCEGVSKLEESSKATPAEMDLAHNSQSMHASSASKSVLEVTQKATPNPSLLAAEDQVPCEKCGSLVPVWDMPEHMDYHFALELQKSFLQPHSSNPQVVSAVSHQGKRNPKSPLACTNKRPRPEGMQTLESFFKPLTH
Summary of the method: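 Pol eta 10 nM; substrate 50 nM final (unlabeled primer, TAMRA reporter, BHQ-2 template); preincub. 15 min RT; reads t=0 and t=10 min at ex525/em598.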

[5] = target: RecQ-like DNA helicase BLM (Homo sapiens) (UniProt P54132); experiment: qHTS for Inhibitors of WRN Helicase: BLM Helicase Counterscreen for WRN Inhibitors (AID 720503); conditions: Recombinant BLM helicase DNA unwinding, red fluorescence; further: potency means the concentration at half of the fitted maximal effect; nearly all actives have a fitted effect of over 60% in size
Summary of the method: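 BLM (1 nM) was preincubated with compounds for 15 min at room temperature in Tris-HCl pH 8.0, 50 mM NaCl, 2 mM MgCl2 buffer. Unwinding started with 100 nM DNA and 2 mM ATP (final); red fluorescence was read twice, 15 min apart.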

[6] = target: Rap guanine nucleotide exchange factor 3 (Homo sapiens) (UniProt O95398); experiment: Confirmatory qHTS for antagonist of cAMP-regulated guanine nucleotide exchange factor 3 (EPAC1) (AID 1645880); further: nearly all actives have a fitted effect of over 55% in size; further: potency means the concentration at half of the fitted maximal effect;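 on activity, negative = inhibition: plate controls were DMSO only for no effect and full effect of the ATA control for full effect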
UniProt O95398, sequence (O95398 whole entry, looked up): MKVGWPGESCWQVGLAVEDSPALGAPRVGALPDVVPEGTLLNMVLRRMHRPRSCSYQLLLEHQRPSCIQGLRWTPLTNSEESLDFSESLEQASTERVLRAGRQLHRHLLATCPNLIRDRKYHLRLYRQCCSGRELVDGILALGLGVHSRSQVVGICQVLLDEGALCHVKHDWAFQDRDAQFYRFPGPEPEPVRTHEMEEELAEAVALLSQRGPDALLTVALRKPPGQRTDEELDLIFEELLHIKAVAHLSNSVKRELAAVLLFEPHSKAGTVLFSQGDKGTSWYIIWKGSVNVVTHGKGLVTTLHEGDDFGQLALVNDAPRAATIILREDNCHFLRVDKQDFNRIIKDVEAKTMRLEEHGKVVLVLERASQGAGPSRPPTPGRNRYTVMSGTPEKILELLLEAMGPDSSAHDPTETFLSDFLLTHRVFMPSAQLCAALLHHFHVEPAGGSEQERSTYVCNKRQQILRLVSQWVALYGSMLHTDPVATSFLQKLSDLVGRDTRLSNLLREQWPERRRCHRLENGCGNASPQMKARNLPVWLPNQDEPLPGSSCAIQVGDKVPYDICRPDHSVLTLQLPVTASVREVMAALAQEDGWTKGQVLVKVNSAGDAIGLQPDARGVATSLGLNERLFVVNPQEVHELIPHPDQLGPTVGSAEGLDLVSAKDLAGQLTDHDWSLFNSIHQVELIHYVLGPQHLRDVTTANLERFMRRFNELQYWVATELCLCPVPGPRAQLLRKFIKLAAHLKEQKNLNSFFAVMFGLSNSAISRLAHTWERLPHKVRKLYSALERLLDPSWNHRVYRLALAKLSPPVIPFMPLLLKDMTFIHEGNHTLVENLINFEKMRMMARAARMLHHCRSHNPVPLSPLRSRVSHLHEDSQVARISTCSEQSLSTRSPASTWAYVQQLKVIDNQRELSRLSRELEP
Summary of the method: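 Released BODIPY-GDP fluoresces less than Rap1-bound BODIPY-GDP; the signal is followed at 480/540 nm at 5-min intervals over 30 min, after 5 min at room temperature. Reactions contain 100 nM EPAC1, 250 nM RAP1B-BODIPY-GDP and 50 uM GDP; results are normalized to ATA and DMSO.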

[7] = target: Rap guanine nucleotide exchange factor 4 (Homo sapiens) (UniProt Q8WZA2); experiment: Confirmatory qHTS for antagonist of cAMP-regulated guanine nucleotide exchange factor 4 (EPAC2) (AID 1645885); conditions: activity change, negative = inhibition: at 114 µM (top of the series) unless noted; further: potency means the concentration at half of the fitted maximal effect; nearly all actives have a fitted effect of over 25% in size
UniProt Q8WZA2, sequence (Q8WZA2 whole entry, looked up): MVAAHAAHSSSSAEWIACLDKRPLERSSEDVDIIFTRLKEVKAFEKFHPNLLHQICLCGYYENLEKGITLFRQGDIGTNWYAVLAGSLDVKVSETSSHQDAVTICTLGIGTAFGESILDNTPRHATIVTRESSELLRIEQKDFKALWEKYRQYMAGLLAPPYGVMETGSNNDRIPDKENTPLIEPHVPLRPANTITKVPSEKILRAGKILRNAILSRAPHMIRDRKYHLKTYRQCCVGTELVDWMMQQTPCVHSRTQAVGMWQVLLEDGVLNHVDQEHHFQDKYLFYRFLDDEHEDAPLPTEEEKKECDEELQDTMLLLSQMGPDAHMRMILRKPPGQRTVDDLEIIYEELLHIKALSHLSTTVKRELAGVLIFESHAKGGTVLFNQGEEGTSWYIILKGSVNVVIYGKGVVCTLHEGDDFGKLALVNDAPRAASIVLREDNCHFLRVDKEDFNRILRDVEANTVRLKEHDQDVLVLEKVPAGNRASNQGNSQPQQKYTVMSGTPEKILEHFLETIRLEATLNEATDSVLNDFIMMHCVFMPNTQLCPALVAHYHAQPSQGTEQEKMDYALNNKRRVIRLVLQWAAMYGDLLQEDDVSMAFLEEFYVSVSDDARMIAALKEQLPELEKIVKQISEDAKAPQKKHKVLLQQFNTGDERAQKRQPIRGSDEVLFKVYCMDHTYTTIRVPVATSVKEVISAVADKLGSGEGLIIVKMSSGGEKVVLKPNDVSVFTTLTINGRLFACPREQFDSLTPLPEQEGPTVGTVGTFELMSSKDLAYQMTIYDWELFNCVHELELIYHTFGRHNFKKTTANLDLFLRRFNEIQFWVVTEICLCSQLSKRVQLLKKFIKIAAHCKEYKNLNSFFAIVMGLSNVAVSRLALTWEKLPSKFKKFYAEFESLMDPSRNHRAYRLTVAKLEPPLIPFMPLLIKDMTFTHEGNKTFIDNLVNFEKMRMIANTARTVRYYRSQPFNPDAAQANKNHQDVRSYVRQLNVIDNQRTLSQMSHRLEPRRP

[8] = target: Rap guanine nucleotide exchange factor 3 (Homo sapiens) (UniProt O95398); experiment: Counterscreen qHTS for agonist of cAMP-regulated guanine nucleotide exchange factor 3 (EPAC1) (AID 1645889); conditions: EPAC1 Rap1B-BODIPY-GDP exchange, fluorescence; activation: at 154 µM (top of the series) unless noted; further: nearly all actives have a fitted effect of over 40% in size; further: potency means the concentration at half of the fitted maximal effect; on activation: % of control where 0% means no effect
Summary of the method: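 Rap1B-BODIPY-GDP 250 nM + GDP 50 uM; cpds 7-pt, final 9.74 nM–152 uM (activator mode) or from 7.32 nM upwards (inhibitor mode); RT; FI 480/540 nm at 5 and 30 min, then ± cAMP, reread.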

[9] = AP1 Signaling Pathway (AID 357; active means well fitted curve in either direction with a large enough effect, not every such curve was filed as active; inconclusive means small, poorly fitted or top-dose-only effect, or another doubt;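 further: ME-180 reporter cells stimulated with EGF at its EC50 level; top concentration of the series differs between compounds; on the % scale 0 is the no-effect control and ±100 the full control effect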); conditions: ME-180 AP-1-bla reporter, EGF-induced, beta-lactamase ratio, 5 h; at 17.2 µM (top of the series) unless noted
Summary of the method: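 A ratiometric CCF4 readout (405 nm excitation; 460 and 530 nm emission) quantified AP-1-driven beta-lactamase in ME-180 cells after 5 h with compound and EC50 EGF; AC50 values were derived for activators and inhibitors.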

[10] = Stat Signaling Pathway (AID 446; active means well fitted curve in either direction with a large enough effect, not every such curve was filed as active; inconclusive means small, poorly fitted or top-dose-only effect, or another doubt;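 further: ME-180 cervical cancer cells given 40 pM IL-6 alongside compound; SIE-controlled beta-lactamase reporter measured as 460/530 nm FRET emission ratio; top concentration of the series differs between compounds; on the % scale 0 is the no-effect control and ±100 the full control effect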); conditions: ME-180 SIE beta-lactamase reporter, IL-6 stimulated, 5 h; at 38 µM (top of the series) unless noted
Summary of the method: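 Compound effects on IL-6-induced STAT reporter activity were measured in ME-180 cells. After overnight culture, cells were co-treated with 40 pM IL-6 for 5 hrs before beta-lactamase substrate loading at room temperature.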

[11] = qHTS Assay for Identification of Small Molecule Agonists for Hypoxia Response Element Signaling Pathway (AID 914; active means well fitted activation curve with a large enough effect in the signal ratio, with a control signal flat, not every such curve was filed as active; inconclusive means small, poorly fitted or top-dose-only effect, or effect the other way, or a change in a side signal; the % refers to the signal ratio; further: potency means the concentration at half of the fitted maximal effect); conditions: ME-180 (cervical carcinoma) HRE-bla reporter, beta-lactamase ratio, CoCl2, 17 h; activation: active compounds read high
Summary of the method: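 Reporter activity (beta-lactamase, CCF4 460nm/530nm ratio) in HRE-bla ME-180 cells is recorded after 17 h compound exposure with EC50 CoCl2 at 37 degrees Celsius. AC50 values come from titration data.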

[12] = target: Cytochrome P450 2C19 (Homo sapiens) (UniProt P33261); experiment: qHTS Assay for Inhibitors and Substrates of Cytochrome P450 2C19 (AID 899); further: potency means the concentration at half of the fitted maximal effect; nearly all actives have a fitted effect of over 60% in size
UniProt P33261, sequence (P33261 whole entry, looked up): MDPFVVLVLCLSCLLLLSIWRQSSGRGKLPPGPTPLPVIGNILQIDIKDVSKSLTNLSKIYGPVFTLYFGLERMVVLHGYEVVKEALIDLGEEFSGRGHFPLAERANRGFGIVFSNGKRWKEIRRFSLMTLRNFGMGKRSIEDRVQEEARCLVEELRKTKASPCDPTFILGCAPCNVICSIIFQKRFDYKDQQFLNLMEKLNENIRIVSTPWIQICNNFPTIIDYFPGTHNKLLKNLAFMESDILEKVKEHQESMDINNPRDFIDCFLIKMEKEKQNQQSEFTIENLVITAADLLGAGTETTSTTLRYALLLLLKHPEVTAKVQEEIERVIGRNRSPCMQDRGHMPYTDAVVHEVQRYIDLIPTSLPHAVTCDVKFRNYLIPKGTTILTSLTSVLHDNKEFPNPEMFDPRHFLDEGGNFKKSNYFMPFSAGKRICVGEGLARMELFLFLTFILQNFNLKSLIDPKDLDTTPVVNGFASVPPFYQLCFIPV
Summary of the method: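 Luminescence readout of luciferin formed from 10uM Luciferin-H EGE (KM level) by 5 nM CYP2C19 in 50mM KPO4. 60 min NADPH-driven reaction at 37C after 10 min compound preincubation; data scaled to 57uM ketoconazole inhibition.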

[13] = target: Ubiquitin carboxyl-terminal hydrolase 1 (Homo sapiens) (UniProt O94782); experiment: Inhibitors of USP1/UAF1: Pilot qHTS (AID 504865);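 further: rhodamine fluorescence freed from ubiquitin-rhodamine substrate followed over time; potency means the concentration at half of the fitted maximal effect; nearly all actives have a fitted effect of over 35% in size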
Summary of the method: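 Kinetic fluorescence assay: 1nM USP1/UAF1, 15 min compound preincubation, then 150nM Ub-Rho; 480/540 nm.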

[14] = target: Vitamin D3 receptor (Homo sapiens) (UniProt P11473); experiment: qHTS for Inhibitors of the vitamin D receptor (VDR): Hit Validation using a Fluorescein Assay (AID 602200); further: potency means the concentration at half of the fitted maximal effect
UniProt P11473, sequence (P11473 whole entry, looked up, the tested form may be a part): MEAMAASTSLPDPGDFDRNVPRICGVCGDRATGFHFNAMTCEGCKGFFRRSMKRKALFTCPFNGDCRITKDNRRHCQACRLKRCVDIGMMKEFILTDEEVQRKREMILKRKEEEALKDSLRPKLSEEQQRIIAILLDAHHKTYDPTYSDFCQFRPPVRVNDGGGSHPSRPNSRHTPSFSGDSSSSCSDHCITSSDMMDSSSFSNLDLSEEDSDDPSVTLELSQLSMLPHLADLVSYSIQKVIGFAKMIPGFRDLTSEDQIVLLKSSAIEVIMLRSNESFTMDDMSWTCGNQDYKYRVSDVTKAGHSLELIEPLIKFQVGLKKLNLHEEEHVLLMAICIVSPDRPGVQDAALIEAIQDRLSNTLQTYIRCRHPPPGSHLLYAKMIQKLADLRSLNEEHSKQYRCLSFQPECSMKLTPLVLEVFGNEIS
Summary of the method: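 Compounds added to VDR ligand-binding domain (1.5 uM) with agonist LG19078 (5 uM) and 5 nM SRC2-3 fluorescein peptide, final concentrations. After 2 h at ambient temperature, polarization of fluorescein emission (Ex 495 nm/Em 520 nm) measured.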

[15] = qHTS for Inhibitors of the vitamin D receptor (VDR): Hit Validation using a Texas Red Assay (AID 602201); further: on the % scale 0 is the no-effect control and ±100 the full control effect
Summary of the method: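 After a 2-hour room-temperature incubation, polarization of Texas-Red emission was read (Ex 595 nm/Em 615 nm). Final mix contained 7 nM Texas Red, 1.5 uM VDR-LBD and LG19078.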

[16] = target: Vitamin D3 receptor (Homo sapiens) (UniProt P11473); experiment: qHTS for Inhibitors of the vitamin D receptor (VDR): Hit Validation using a Beta-Lactamase Assay (AID 602202); further: potency means the concentration at half of the fitted maximal effect
Summary of the method: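 Beta-lactamase reporter read-out (447 nm emission of cleaved FRET substrate, 2 h) after 18 h compound exposure of HEK293 cells carrying a VDR-GAL4 fusion and UAS reporter, stimulated with LG190178.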

[17] = qHTS for Inhibitors of the vitamin D receptor (VDR): Hit Validation using a Cytotoxicity Assay (AID 602204);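 further: cells co-treated with VDR agonist LG190178 at 300 nM; potency means the concentration at half of the fitted maximal effect; nearly all actives have a fitted effect of over 75% in size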
Summary of the method: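 Plated cells (20,000/well) incubate 4 h, receive test compounds, and incubate 18 h more. A luminescent reagent measuring ATP from living cells is added and read after 30 min.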
Tags describe the fitted curve by direction and shape or compound fluorescence and quenching.

**Q.** With O=C1NC(=S)NC(=O)C1=Cc1cccc2cc3ccccc3cc12 as the molecule, how does the activity change, negative = inhibition [1] read?
**A.** inactive: -8.51%

**Q.** What about the Potency [2] of the same molecule?
**A.** inconclusive: 3.16 µM [inhibitor, partial curve]

**Q.** And the Potency [3]?
**A.** inconclusive: 19.2 µM [inhibitor, partial curve]

**Q.** And the Potency [4]?
**A.** inconclusive: 84.9 µM [inhibitor, single point]

**Q.** And the Potency [5]?
**A.** inconclusive: 21.5 µM [inhibitor, partial curve]

**Q.** And the Potency [6]?
**A.** inconclusive: 37.9 µM [inhibitor, partial curve]

**Q.** What about the Potency [7] of the same molecule?
**A.** inconclusive: 75.7 µM [inhibitor, single point]

**Q.** And the activation [8]?
**A.** inconclusive: 167% [activator]

**Q.** Which activity change, negative = inhibition [9] does the source give for Nc1c(C(=O)NCc2ccco2)c2nc3ccccc3nc2n1Cc1ccc(F)cc1 here?
**A.** inconclusive: 79.7% [activator]

**Q.** And the activity change, negative = inhibition [1]?
**A.** active: 108% [activator] [at 17.2 µM]

**Q.** And the activity, negative = inhibition [10]?
**A.** inconclusive: 187% [activator] [at 17.2 µM]

**Q.** What about the Potency [11] of the same molecule?
**A.** active: 7.94 µM

**Q.** And the Potency [6]?
**A.** inconclusive: 30.1 µM [inhibitor, full curve]

**Q.** What about the Potency [8] of the same molecule?
**A.** inactive

**Q.** For Cc1ccc(-n2c(O)c(/C=C/C=Nc3ccccc3)c(=O)[nH]c2=O)cc1, which Potency [6] is on record?
**A.** inactive

**Q.** What about the Potency [8] of the same molecule?
**A.** active: 44.7 µM

**Q.** Which Potency [3] does the source give for CCCCN1C(=O)/C(=C\c2ccco2)C(=O)N(CCc2ccccc2)C1=O here?
**A.** inconclusive: 21.5 µM [inhibitor, partial curve]

**Q.** And the Potency [6]?
**A.** inconclusive: 42.6 µM [inhibitor, partial curve]

**Q.** And the Potency [8]?
**A.** inactive

**Q.** Which results are given for C=C(C)CN1CC[C@@]23c4c5ccc(O)c4O[C@H]2c2[nH]c4ccccc4c2C[C@]3(O)[C@@H]1C5?
**A.** Potency [12]: inconclusive: 3.16 µM [inhibitor, full curve, poor fit]; Potency [13]: inconclusive: 44.7 µM [inhibitor, partial curve]; Potency [6]: inconclusive: 55.9 µM [inhibitor, partial curve]; Potency [7]: inconclusive: 55.5 µM [inhibitor, partial curve]

**Q.** With O=C1NC(=S)NC(=O)C1=Cc1cccn1-c1ccc(O)cc1 as the molecule, how does the Potency [14] read?
**A.** inconclusive: 8.91 µM [inhibitor, single point]

**Q.** And the Potency [15]?
**A.** inactive

**Q.** And the Potency [16]?
**A.** inconclusive: 29.1 µM [inhibitor, single point]

**Q.** What about the Potency [17] of the same molecule?
**A.** inconclusive: 16.4 µM [cytotoxic, partial curve, poor fit]

**Q.** What about the Potency [4] of the same molecule?
**A.** active: 6.01 µM

**Q.** And the Potency [6]?
**A.** active: 3.55 µM

**Q.** And the Potency [8]?
**A.** inconclusive: 0.224 µM [activator, full curve]
